# Reference: PubChem BioAssay AID652104 (National Center for Advancing Translational Sciences (NCATS), 2013)
# The campaign covered roughly 410,000 compounds. About 7,200 (1.8%) were called active. The inconclusive results got no clear call from the source; some entries with a clear call stand among them for comparison. Calls come from the whole dose curve; as a rule, active = well fitted activation curve with a large enough effect; inconclusive = small, poorly fitted or top-dose-only effect, or another doubt; inactive = no such curve, though single readings can be large or run the other way. Potencies of inconclusive entries are left out as doubtful fits.
# Experiment: qHTS of TDP-43 Inhibitors; note: nearly all actives have a fitted effect of over 50% in size; for growth rescue (activation): % of control where 0% means no effect
# Settings: TDP-43 expressing yeast growth rescue, BacTiter-Glo, 24 h; growth rescue (activation): at 46.1 µM (top of the series) unless noted
# Procedure, shortened: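 Growth rescue of TDP-43-toxic yeast measured as ATP luminescence (BacTiter-Glo). Cells grown to mid-log in raffinose, induced in galactose at OD600=0.02, exposed to compound 24 hr at 30 deg C.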
# Potency is the fitted concentration of half-maximal effect; tags give direction and shape of the fitted curve.
Compound,Potency,growth rescue (activation)
Cc1cc(=O)oc2cc(OCC(=O)NCc3ccncc3)ccc12,inactive,–
CCCCn1c(=O)[nH]c(=O)c2c1nc(-c1ccc(-c3ccccc3Br)o1)n2CCOC,inactive,–
NC(=O)[C@H](Cc1cc2ccccc2s1)NC(=O)[C@@H]1CC2(CC(c3cccc(NC(=O)[C@@H]4CCC(=O)N4)c3)=NO2)CN1C(=O)c1ccccc1 (stereo partly specified),inactive,–
O=C(c1ccco1)N1CCN(C(=S)Nc2ccc(F)cc2)CC1,inactive,–
Cc1ccc(-n2ncc3c(NC4CCCCCC4)ncnc32)cc1Cl,"inconclusive [activator, partial curve]",–
Cc1cc(NCc2ccccc2)n2ncc(-c3ccccc3)c2n1,"inconclusive [activator, single point]",–
COc1ccccc1NC(=O)CSc1nc2ccccc2c(=O)n1C,"inconclusive [activator, partial curve]",–
CCc1ccc(CN(Cc2cn[nH]c2-c2ccc(OC)cc2)C(=O)Nc2cc(Cl)ccc2OC)cc1,inactive,–
CCN(Cc1nc(-c2ccc(OC)cc2)no1)C(=O)c1ccc2c(c1)OCO2,"inconclusive [activator, single point]",–
Clc1ccccc1OCCn1nnc2ccccc21,"inconclusive [activator, partial curve]",–
N#C/C(=C/c1cccnc1)c1ccccc1,"inconclusive [activator, partial curve]",–
O=c1c(-c2ccc(O)cc2)coc2cc(OC3OC(CO)C(O)C(O)C3O)cc(O)c12 (stereo unspecified),"inconclusive [activator, full curve]",–
CCOC(=O)CSCC(=O)N1CCC(Cc2ccccc2)CC1,"inconclusive [activator, single point]",–
COc1c(C)cccc1C(=O)Nc1cccc2ccc(C)nc12,active: 22.4 µM,–
COC(=O)Cn1cc(/C=N/NC(=O)COc2cccc3cccnc23)c2ccccc21,"inconclusive [activator, partial curve, poor fit]",–
COc1cc2c(cc1NC(=O)CSc1nc3ccccc3[nH]1)oc1ccccc12,"inconclusive [activator, single point]",–
Cc1ccc2cc(C=O)c(N3CCOCC3)nc2c1C,"inconclusive [activator, partial curve]",–
N#Cc1ccc(/C=C/C(=O)c2ccccc2)cc1,"inconclusive [activator, partial curve]",–
Cc1ccc(OC(=O)c2ccc3snnc3c2)cc1,"inconclusive [activator, single point]",–
C[C@H](CCC(=O)O)[C@H]1CC[C@H]2[C@@H]3CC[C@@H]4C[C@H](O)CC[C@]4(C)[C@H]3CC[C@]12C,inactive,–
O=C(NCc1ccc2c(c1)OCO2)c1cc2ccccc2o1,"inconclusive [activator, partial curve, poor fit]",–
COc1cc2nc(NC(=O)c3ccc(S(=O)(=O)N4CCOCC4)cc3)sc2cc1OC,inactive,–
O=S(=O)(Cc1ccccc1)NCCc1cccc(Cl)c1,"inconclusive [activator, single point]",–
COc1ccc(N2C(=O)CC(SCc3ccc(Cl)cc3)C2=O)cc1 (stereo unspecified),active: 22.4 µM,–

Compound,Potency,growth rescue (activation)
O=C(Nc1cccc(C(F)(F)F)c1)Nc1ccon1,active: 20 µM,–
CCOC(=O)CCNC(=O)c1ccc2nc(C3CCCCC3)oc2c1,"inconclusive [activator, single point]",–
Cc1cc(C)cc(NC(=O)Cn2nnc(C(=O)NCc3ccc(F)cc3)c2N)c1,"inconclusive [activator, single point]",–
Cc1ccccc1C1CC(=O)Nc2ccc3ccccc3c21 (stereo unspecified),inactive,–
O=C(CSCC(=O)OCC(=O)c1ccc(Br)cc1)Nc1ccc(Br)cc1,"inconclusive [activator, single point]",–
CCN1c2ccccc2-c2nc3ccccc3n2C1c1cccs1 (stereo unspecified),"inconclusive [activator, single point]",–
O=[N+]([O-])c1cc(S(=O)(=O)N2CCCCCC2)ccc1Cl,"inconclusive [activator, partial curve]",–
CCOC(=O)C1CCN(C(=O)c2ccc(-n3ccc4ccccc43)s2)CC1,"inconclusive [activator, partial curve]",–
O=[N+]([O-])c1cccnc1SCc1ccccc1,"inconclusive [activator, single point]",–
COc1cc2ccccc2cc1C(=O)Nc1ccc(Cc2ccncc2)cc1,inactive,–
Cc1cccc(C(=O)NCCc2ccccc2)c1,"inconclusive [activator, partial curve]",–
Cc1ccn2c(=O)nc(SCC(=O)NCc3ccccc3)nc2c1,inactive,–
CC(C)(C)C(=O)OC/C(N)=N/OC(=O)c1ccc(Cl)c(Cl)c1,–,inconclusive: -87.4% [activator]
Fc1ccc(-c2noc3ncnc(NCc4ccc(Cl)cc4)c23)cc1,"inconclusive [activator, full curve]",–
CN(Cc1ccccc1)C(=O)c1ccc2c(c1)N(Cc1ccccc1Cl)C(=O)c1ccccc1S2,inactive,–
COc1ccc(OC)c(/C=N/NC(=O)CC(=O)NCc2ccccc2)c1,"inconclusive [activator, single point]",–
CCCc1ccc(-c2cc(C(=O)N/N=C/c3ccc([N+](=O)[O-])o3)c3ccccc3n2)cc1,"inconclusive [activator, partial curve]",–
CCOC(=O)c1nnn(-c2nonc2N)c1CSc1ccccn1,"inconclusive [activator, partial curve]",–
CCN1C(=O)c2ccccc2S(=O)c2ccc(C(=O)N3CCN(c4cc(Cl)ccc4C)CC3)cc21 (stereo unspecified),inactive,–
CC(=O)Nc1cccc(-c2csc(C(O)c3ccc(F)c(F)c3)n2)c1 (stereo unspecified),"inconclusive [activator, partial curve]",–
COc1ccc(Cc2nnc(SCC(=O)Nc3ccccc3C)n(N)c2=O)cc1,inactive,–
O=C(CCCl)Nc1nc2c(s1)CCc1ccccc1-2,active: 22.4 µM,–
Cc1cc(=O)n(CC(=O)N2CCN(c3ccccc3F)CC2)c2c1c(C)nn2C,"inconclusive [activator, single point]",–
COc1cc(C[C@@H](C)[C@@H](C)Cc2ccc(O)c(OC)c2)ccc1O,"inconclusive [activator, partial curve]",–

Compound,Potency,growth rescue (activation)
Cc1ccc(NC(=O)Cn2c(=O)n(CC3CCCO3)c(=O)c3ccccc32)cc1 (stereo unspecified),inactive,–
Cc1cc(C)c2oc(-c3cccc(NC(=O)COc4ccc([N+](=O)[O-])cc4)c3)nc2c1,inactive,–
Cc1ccc(C(=O)CSc2nnc3n2CCCCC3)s1,inactive,–
CC(=O)Oc1ccc(-c2csc(Nc3cccc(C)n3)n2)cc1,inactive,–
COc1ccc(-c2cc(C(C)=O)c(C)n2CCC(=O)Nc2cc(Cl)ccc2C)cc1,inactive,–
O=[N+]([O-])c1ccc(Nc2nc(N/N=C\c3ccc4c(c3)OCO4)nc(N3CCCCC3)n2)cc1,active: 11.2 µM,–
Cc1ccsc1C(=O)OC(C)C(=O)Nc1ccc(Cl)cn1 (stereo unspecified),"inconclusive [activator, single point]",–
COc1ccc(NC(=S)NCc2ccc(F)cc2)cc1,"inconclusive [activator, single point]",–
O=C(CSc1nccn1-c1ccc(F)cc1)Nc1ccc2c(c1)OCO2,"inconclusive [activator, single point]",–
CS(=O)(=O)N(CC(=O)NCc1ccncc1)c1cc(Cl)cc(Cl)c1,"inconclusive [activator, partial curve, poor fit]",–
Cc1c(-c2nsc(NC(=O)c3ccccc3)n2)nnn1-c1ccc(C(F)(F)F)c(Cl)c1,"inconclusive [activator, partial curve, poor fit]",–
CS(=O)(=O)N(CC(=O)N1CCN(c2ccccc2)CC1)c1cccc(Br)c1,"inconclusive [activator, partial curve]",–
COc1ccc(OC)c(NC(=O)COC(=O)CC2CCCCC2)c1,"inconclusive [activator, single point]",–
O=C(O)c1ccc(COc2ccc([N+](=O)[O-])cc2Cl)cc1,inactive,–
CC(C)C(=O)Nc1cc(S(=O)(=O)Nc2ccc(Cl)cc2)ccc1Cl,"inconclusive [activator, partial curve]",–
CCCCN(CCCC)C(=O)c1cc2c(=O)n3cccc(C)c3nc2s1,active: 22.4 µM,–
COc1ccc(N(C)C(=O)CCn2cnc3onc(-c4ccc(F)cc4)c3c2=O)c(OC)c1,"inconclusive [activator, single point]",–
O=C1CSC(c2ccc(Cl)c(Cl)c2)N1c1nccs1 (stereo unspecified),active: 14.1 µM,–
CCOC(=O)c1c(NC(=O)Nc2cccc(Cl)c2)sc(C)c1C,"inconclusive [activator, partial curve, poor fit]",–
Cc1cc(NC(=O)CN2CCOCC2)n(-c2nc3ccccc3s2)n1,"inconclusive [activator, partial curve]",–
Cc1ccc(C(=O)Nc2ccc(-c3cn4cccnc4n3)cc2)cc1C,–,inconclusive: 31.2% [activator]
CCOc1ccccc1C1C(C(=O)N2CCCCC2)=C(C)Nc2nc3ccccc3n21 (stereo unspecified),inactive,–
O=C(N[C@H]1CCC(=O)N(CCSc2ccc(Br)cc2)CC1)OCc1ccccc1,"inconclusive [activator, single point]",–
